# In the supplement of paper PMC4466236:
# Whole data set: some 33,000 sequences, median “E-score (dimensionless, -0.5 to 0.5)” near -0.058, cut for the highest 2% near 0.35. Some of the results follow.
# Test system: MvaT
# Experiment: PBM 8-mer E-score (mean of HK and ME arrays) (E-score (dimensionless, -0.5 to 0.5)); higher = stronger relative binding preference; most listed sequences are background and not binding sites
# Procedure: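 Protein binding microarray: GST-tagged full-length MvaT (P. aeruginosa PAO1) bound to two universal double-stranded 60-mer arrays (ME and HK), each with a constant 25-mer primer and a variable 35-mer region covering all 8-mers. The 8-mer E-score (rank-based, range -0.5 to 0.5, >0.45 = specific binding) is the mean of the two arrays.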
row,Sequence,PBM 8-mer E-score
1,ATCAGTCG,-0.0941
2,CCTACGTC,-0.192
3,ATGAATTA,0.295
4,AAAACCAA,0.171
5,ATTCACTC,-0.0267
6,GACAAAAA,0.146
7,CGTTGCGC,-0.0717
8,GAATACAA,0.279
9,AGCGAAAT,0.0731
10,GCGAAAGA,-0.0739
11,ACGCCCTC,-0.263
12,ATTGGCTC,-0.208
13,CGAAGGTC,-0.298
14,ATCGGGGG,-0.333
15,AATTTAAG,0.271
16,AATTCCAG,0.127
17,CATCCTCA,-0.183
18,CAGTGATA,-0.0191
19,GTACGGGA,-0.0499
20,AATCTCAC,0.0724
21,ACATGTCC,-0.0815
22,AAAAGCTT,0.174
23,CAGTACAA,0.142
24,AAGAGAGA,-0.233
25,GCCGGTAC,-0.198

row,Sequence,PBM 8-mer E-score
1,GTATACAA,0.319
2,GCGCATCC,-0.285
3,CCATTGGG,-0.289
4,GGCAGTAC,-0.0151
5,ATTTCAAG,0.163
6,CACCCCAC,-0.154
7,CGTTGTTA,0.127
8,GAGGCGCC,-0.302
9,CGAGTACG,-0.0687
10,CAACTACG,0.0764
11,TAGGAAGA,0.048
12,AGTGTTGG,0.00492
13,AAATATCG,0.295
14,CGCTGGGA,-0.245
15,ACCATCCT,-0.0607
16,ACCAAGGT,-0.219
17,TCTGTAAA,-0.0295
18,CCTACTTA,0.251
19,ACAGACAA,0.189
20,GCTGGCCA,-0.299
21,ATCTACAG,0.0162
22,CAATGTGA,0.0419
23,GAGCTCAC,-0.217
24,AGACGGGC,-0.0986
25,AAGTCTCT,0.0309

row,Sequence,PBM 8-mer E-score
1,ACGGATTC,-0.0331
2,TATGCGGA,-0.058
3,CAGGGACA,-0.188
4,GTATTTCA,0.223
5,AGCTCGGA,-0.141
6,CGCACGCA,0.00173
7,TCACTCGA,-0.168
8,CGAATAAA,0.254
9,CGAGGCAA,-0.0751
10,AGCCTTGA,-0.171
11,AGGCACAG,-0.27
12,ATCGGTAA,-3.6e-06
13,CAGACACA,-0.0655
14,AGTTGCTA,0.0718
15,CTAGGGTC,-0.226
16,CACGGGCG,-0.238
17,GTCTCCTA,-0.118
18,CTGAGGCC,-0.298
19,TGCTAGAA,0.0627
20,ACAAAGAA,0.183
21,GAATAAGC,0.194
22,GATCGGAA,-0.104
23,ATTAACTG,0.283
24,GATAATGC,0.151
25,CAAACCCC,-0.173

row,Sequence,PBM 8-mer E-score
1,CGTGACGC,-0.189
2,AATCAGCT,-0.0849
3,AACAGCGT,-0.0539
4,CTGCTAAG,-0.265
5,GAATAGAA,0.105
6,AGACCGAA,-0.101
7,ACGTACGG,-0.0797
8,ACGCATGG,-0.16
9,GATATCGC,0.137
10,AAGGCAGT,0.0784
11,AAGGCATA,-0.0792
12,GTGGGTCA,-0.165
13,AAGCCGTA,-0.103
14,ATACAAAG,0.27
15,ACTTACCG,0.0362
16,CACCTGTA,-0.0465
17,GGAGGCAC,-0.281
18,AACTCGCC,-0.087
19,ACTAGACC,-0.0407
20,ATCGGTGC,-0.128
21,AATCATTC,0.136
22,ACACAACG,-0.0104
23,ATCGCTAA,0.0876
24,GCACACGA,-0.0821
25,CGAGGGCA,-0.294

row,Sequence,PBM 8-mer E-score
1,AGTGTAGA,0.0718
2,TAGATCTA,0.135
3,ATATCAAA,0.244
4,AGCCGTTC,-0.187
5,CGCAAGCG,-0.206
6,GGTCGGAC,-0.14
7,TACCCCTA,-0.113
8,CAACACAC,0.0459
9,AAGTCGTC,0.00428
10,CTGCATTC,-0.112
11,AACTGGGA,-0.216
12,GCTACCCA,-0.19
13,AAAAAGGG,0.0202
14,AGGGAAAA,0.0358
15,AGAGGGTC,-0.31
16,GACAGAGC,-0.264
17,GGATACGA,0.0766
18,ATAAGCCC,-0.0318
19,ATGATAAA,0.278
20,ATATACGG,0.194
21,CCCCAAAA,-0.131
22,CATCTAGG,-0.0824
23,CTTCGTAA,-0.0661
24,CCTAATAA,0.266
25,AAAACCCA,0.138

row,Sequence,PBM 8-mer E-score
1,GCTCGCAA,-0.107
2,ACTGGGTG,0.0181
3,ACTCTTTC,0.035
4,ATCTAGAA,0.201
5,CCTTCTGA,-0.254
6,CCTCAGGA,-0.254
7,ACTCGATG,-0.13
8,CAGGCCTG,-0.306
9,CGCAGGGA,-0.231
10,AAACAGAG,0.0196
11,ATACCTTG,0.00453
12,ATAGGAAC,0.107
13,CCGGCCCG,-0.341
14,GGTATACA,0.201
15,AGGCATAT,0.132
16,GAGCCCTC,-0.328
17,GTGCTATA,0.143
18,CTTCAAGC,-0.193
19,GGGTTCCA,-0.268
20,ACTGCAGG,-0.115
21,CGACCGTA,-0.141
22,ACGATTGA,0.0233
23,CCACCCGA,-0.329
24,CAGAGTTA,0.167
25,ATAATTTA,0.416

row,Sequence,PBM 8-mer E-score
1,ACGTCCAG,-0.18
2,AGAAGACT,-0.054
3,AGTGCGAA,0.0576
4,CTAGCCAA,-0.0421
5,AATACTCT,0.144
6,ATCCCTCA,0.0787
7,CATTTGCG,-0.0713
8,GCTCATTA,0.00242
9,ATTACGGC,0.0781
10,GTTGGAAA,0.0548
11,TACGTTAA,0.309
12,AGAATCTC,-0.0899
13,CGTACCCA,-0.134
14,TCATCTCA,-0.197
15,CCGATGTC,-0.215
16,CAGCTAAC,-0.0651
17,ACGCCAGG,-0.306
18,AACTTACT,0.335
19,GGAATGCC,-0.213
20,ACACTGGG,-0.0854
21,ATATCTTA,0.339
22,AAAGGGAG,-0.148
